# Assay results reported in the supplement of paper PMC8728848.
# Some of the results follow.
# Key:
# Assay in all cases: glycan array binding signal (z-score within array); higher = stronger binding
# Conditions in all cases: glycan notation: IUPAC condensed, linker removed
# [1] = target: GlcNAc(b1-3)Gal(b1-4)GlcNAc(b1-3)Gal(b1-4)GlcNAc(b1-3)GalNAc
# How it was run: (§1)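 The Consortium for Functional Glycomics database supplied 3228 glycan arrays, of which those lacking an available protein sequence were dropped. The binding signal, a within-array Z-score, was averaged across arrays of the same protein sequence and across linkers. Negative scores can be read as non-binding.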
# [2] = target: GlcNAc(b1-3)Gal(b1-4)GlcNAc(b1-3)GalNAc
# How it was run: as §1
# [3] = target: GlcNAc(b1-3)Gal(b1-4)GlcNAc(b1-3)[GlcNAc(b1-3)Gal(b1-4)GlcNAc(b1-3)]GalNAc
# How it was run: as §1
# [4] = target: GlcNAc(b1-3)Gal(b1-4)GlcNAc(b1-6)[Gal(b1-3)]GalNAc
# How it was run: as §1
# [5] = target: GlcNAc(b1-3)Gal(b1-4)GlcNAc(b1-6)[GlcNAc(b1-3)Gal(b1-3)]GalNAc
# How it was run: as §1
# [6] = target: GlcNAc(b1-3)Gal(b1-4)GlcNAc(b1-6)[GlcNAc(b1-3)]Gal(b1-4)GlcNAc
# How it was run: as §1
# GlcNAc(b1-3)GalNAc = target: GlcNAc(b1-3)GalNAc
# How it was run: as §1
# GlcNAc(b1-3)Man = target: GlcNAc(b1-3)Man
# How it was run: as §1
# [7] = target: GlcNAc(b1-3)[GlcNAc(b1-4)][GlcNAc(b1-6)]GlcNAc
# How it was run: as §1
# [8] = target: GlcNAc(b1-3)[GlcNAc(b1-6)]Gal(b1-4)GlcNAc
# How it was run: as §1
# [9] = target: GlcNAc(b1-3)[GlcNAc(b1-6)]GalNAc
# How it was run: as §1
# [10] = target: GlcNAc(b1-4)Gal(b1-4)GlcNAc
# How it was run: as §1
# GlcNAc(b1-4)GlcNAc = target: GlcNAc(b1-4)GlcNAc
# How it was run: as §1
# [11] = target: GlcNAc(b1-4)GlcNAc(b1-4)GlcNAc
# How it was run: as §1
# [12] = target: GlcNAc(b1-4)GlcNAc(b1-4)GlcNAc(b1-4)GlcNAc(b1-4)GlcNAc
# How it was run: as §1
# [13] = target: GlcNAc(b1-4)GlcNAc(b1-4)GlcNAc(b1-4)GlcNAc(b1-4)GlcNAc(b1-4)GlcNAc
# How it was run: as §1
# [14] = target: GlcNAc(b1-4)[GlcNAc(b1-6)]GalNAc
# How it was run: as §1
# [15] = target: GlcNAc(b1-6)Gal(b1-4)GlcNAc
# How it was run: as §1
# GlcNAc(b1-6)GalNAc = target: GlcNAc(b1-6)GalNAc
# How it was run: as §1
# [16] = target: GlcNAc6S(b1-3)Gal(b1-4)GlcNAc
# How it was run: as §1
# Kdn(a2-3)Gal(b1-3)GalNAc = target: Kdn(a2-3)Gal(b1-3)GalNAc
# How it was run: as §1
# Kdn(a2-3)Gal(b1-3)GlcNAc = target: Kdn(a2-3)Gal(b1-3)GlcNAc
# How it was run: as §1
# Kdn(a2-3)Gal(b1-4)Glc = target: Kdn(a2-3)Gal(b1-4)Glc
# How it was run: as §1
# Kdn(a2-3)Gal(b1-4)GlcNAc = target: Kdn(a2-3)Gal(b1-4)GlcNAc
# How it was run: as §1
# [17] = target: Kdn(a2-3)Gal(b1-4)[Fuc(a1-3)]GlcNAc
# How it was run: as §1
# Kdn(a2-6)Gal(b1-4)GlcNAc = target: Kdn(a2-6)Gal(b1-4)GlcNAc
# How it was run: as §1
# [18] = target: Man(a1-2)Man(a1-2)Man(a1-3)Man
# How it was run: as §1
# [19] = target: Man(a1-2)Man(a1-2)Man(a1-6)[Man(a1-3)]Man
# How it was run: as §1
# Man(a1-2)Man(a1-3)Man = target: Man(a1-2)Man(a1-3)Man
# How it was run: as §1
# [20] = target: Man(a1-2)Man(a1-3)[Man(a1-2)Man(a1-6)]Man
# How it was run: as §1
# [21] = target: Man(a1-2)Man(a1-3)[Man(a1-2)Man(a1-6)]Man(a1-6)[Man(a1-2)Man(a1-2)Man(a1-3)]Man
# How it was run: as §1
# [22] = target: Man(a1-2)Man(a1-3)[Man(a1-2)Man(a1-6)]Man(a1-6)[Man(a1-2)Man(a1-2)Man(a1-3)]Man(b1-4)GlcNAc(b1-4)GlcNAc
# How it was run: as §1
# [23] = target: Man(a1-2)Man(a1-3)[Man(a1-6)]Man(a1-6)[Man(a1-2)Man(a1-3)]Man(b1-4)GlcNAc(b1-4)GlcNAc
# How it was run: as §1
# [24] = target: Man(a1-2)Man(a1-6)[Man(a1-3)]Man(a1-6)[Man(a1-2)Man(a1-2)Man(a1-3)]Man
# How it was run: as §1
# [25] = target: Man(a1-2)Man(a1-6)[Man(a1-3)]Man(a1-6)[Man(a1-2)Man(a1-2)Man(a1-3)]Man(b1-4)GlcNAc(b1-4)GlcNAc
# How it was run: as §1
# Man(a1-3)[Man(a1-6)]Man = target: Man(a1-3)[Man(a1-6)]Man
# How it was run: as §1
# [26] = target: Man(a1-3)[Man(a1-6)]Man(a1-6)[Man(a1-2)Man(a1-3)]Man(b1-4)GlcNAc(b1-4)GlcNAc
# How it was run: as §1
binder,measurement,setting,value
Epa22 (Candida glabrata) (protein) MGSSHHHHHHSSGLVPRGSHMKRALSSQNPFGYPIGCSPQSTNVIPGLTMELYSYPIVSGTPPNCYDASYVDPEYPRTGYLKRKMIGKSTGVTGSLNYKFSVEKACMVKYGNLPAGYNYNEPLTVSNFTMLLYGYFKPQTSGIHTFFVNADDLLYINFGAGNAFDCCKREDSKFKLGEYVAYDIWHVDSSKNKVSLNLEKDVYYPIRMFFNNIGKDSSLDLSFSVNGAVEHITDFSGYLYSVPDQPDACPAPIGYDTTCK,glycan array binding signal (z-score),[1],-0.324
same,glycan array binding signal (z-score),[2],-0.305
same,glycan array binding signal (z-score),[3],-0.299
same,glycan array binding signal (z-score),[4],-0.293
same,glycan array binding signal (z-score),[5],-0.331
same,glycan array binding signal (z-score),[6],-0.387
same,glycan array binding signal (z-score),GlcNAc(b1-3)GalNAc,-0.37
same,glycan array binding signal (z-score),GlcNAc(b1-3)Man,-0.35
same,glycan array binding signal (z-score),[7],-0.383
same,glycan array binding signal (z-score),[8],-0.413
same,glycan array binding signal (z-score),[9],-0.387
same,glycan array binding signal (z-score),[10],-0.417
same,glycan array binding signal (z-score),GlcNAc(b1-4)GlcNAc,-0.413
same,glycan array binding signal (z-score),[11],-0.404
same,glycan array binding signal (z-score),[12],-0.238
same,glycan array binding signal (z-score),[13],-0.4
same,glycan array binding signal (z-score),[14],-0.402
same,glycan array binding signal (z-score),[15],0.729
same,glycan array binding signal (z-score),GlcNAc(b1-6)GalNAc,-0.395
same,glycan array binding signal (z-score),[16],-0.019
same,glycan array binding signal (z-score),Kdn(a2-3)Gal(b1-3)GalNAc,-0.361
same,glycan array binding signal (z-score),Kdn(a2-3)Gal(b1-3)GlcNAc,-0.236
same,glycan array binding signal (z-score),Kdn(a2-3)Gal(b1-4)Glc,-0.094
same,glycan array binding signal (z-score),Kdn(a2-3)Gal(b1-4)GlcNAc,-0.288
same,glycan array binding signal (z-score),[17],-0.317
same,glycan array binding signal (z-score),Kdn(a2-6)Gal(b1-4)GlcNAc,-0.225
same,glycan array binding signal (z-score),[18],-0.364
same,glycan array binding signal (z-score),[19],-0.39
same,glycan array binding signal (z-score),Man(a1-2)Man(a1-3)Man,-0.414
same,glycan array binding signal (z-score),[20],-0.422
same,glycan array binding signal (z-score),[21],-0.437
same,glycan array binding signal (z-score),[22],-0.357
same,glycan array binding signal (z-score),[23],-0.386
same,glycan array binding signal (z-score),[24],-0.435
same,glycan array binding signal (z-score),[25],-0.387
same,glycan array binding signal (z-score),Man(a1-3)[Man(a1-6)]Man,-0.331
same,glycan array binding signal (z-score),[26],-0.235
